{"source": "patent US20180148503A1", "about": "(Memorial Sloan Kettering, published 2018)", "binders": {"B1": {"name": "EXT009-20 phage (scFv phage clone) (scFv)", "scFv": "QAVLTQPPSASGTPGQRVTIS[letters of about 80 residues omitted]VFGTGTKVTVLGSRGGGGSGGGGSGGGGSLEMAQVQLVQSGAEVRKPGASVKVSCKASGGTFSSYAISWVRQAPGQGLEWMGRIIPILGIANYAQKFQGRVTITADKSTSTAYMELSSLRSEDTAVYYCARHYGQWWDYWGQGTLVTVSS"}}, "assay_in_all_cases": "phage FACS on peptide-loaded T2 cells", "key": {"[1]": {"target": "T1, 009-mut7 (…) / HLA-A*0201 complex on T2 cells (human)", "T1 construct": "also called EXT009-mut7; Pr306A"}, "[2]": {"target": "T2, 009-mut6 (…) / HLA-A*0201 complex on T2 cells (human)", "T2 construct": "also called EXT009-mut6"}, "[3]": {"target": "T3, 009-AAAA (…) / HLA-A*0201 complex on T2 cells (human)", "T3 construct": "Control peptide with alanines at positions 4-7; also called EXT009-AAAA; 009-AAAA (position 4-7)"}, "[4]": {"target": "T4, 009-mut4 (…) / HLA-A*0201 complex on T2 cells (human)", "T4 construct": "also called EXT009-mut4"}, "[5]": {"target": "T5, 009-mut8 (…) / HLA-A*0201 complex on T2 cells (human)", "T5 construct": "also called EXT009-mut8"}, "[6]": {"target": "T6, 009-mut10 (…) / HLA-A*0201 complex on T2 cells (human)", "T6 construct": "Alanine variant at peptide position 10"}, "[7]": {"target": "T7, 009-mut5 (…) / HLA-A*0201 complex on T2 cells (human)", "T7 construct": "also called EXT009-mut5"}, "[8]": {"target": "T8, 009-mut9 (…) / HLA-A*0201 complex on T2 cells (human)", "T8 construct": "also called EXT009-mut9"}, "[9]": {"target": "T9, 009-mut3 (…) / HLA-A*0201 complex on T2 cells (human)", "T9 construct": "also called EXT009-mut3; Pr302A"}, "[10]": {"target": "T10, PRA300-309 (…) / HLA-A*0201 complex (human)", "T10 construct": "also called PRAME300; PRAME P300"}, "[11]": {"target": "T3, 009-AAAA (…) / HLA-A*0201 complex on T2 …", "remark": "listed apart in the source"}}, "data": [{"binder": "B1", "values": [{"measurement": "MFI", "setting": "[1]", "result": 2560}, {"measurement": "MFI", "setting": "[2]", "result": 20100}, {"measurement": "MFI", "setting": "[3]", "result": 106}, {"measurement": "MFI", "setting": "[4]", "result": 8480}, {"measurement": "MFI", "setting": "[5]", "result": 88.9}, {"measurement": "MFI", "setting": "[6]", "result": 85.7}, {"measurement": "MFI", "setting": "[7]", "result": 8440}, {"measurement": "MFI", "setting": "[8]", "result": 85.6}, {"measurement": "MFI", "setting": "[9]", "result": 5310}, {"measurement": "MFI", "setting": "[10]", "result": 13200}, {"measurement": "binding result", "setting": "[11]", "result": "no binding"}]}]}
